Experimental data taken from US20250145714A1 (GENUV, published 2025).

Tests used:
[1] = target: human PD-1 expressed on HEK-Blue cells (pCMV3-hPD1 vector) (human, UniProt Q15116 25-288); test: cell-based or functional assay
[2] = target: T1, Human PD-1 (Acrobiosystems, Cat #PD1-H5221) (human, UniProt Q15116 fragment); test: SPR Biacore 8K, human PD-1 amine-coupled on CM5, 1:1 model, pH 6.0
T1 construct: Bought protein, immobilised on a CM5 chip; also called hPD-1
Description: (§1) Human PD-1 (Acrobiosystems, Cat #PD1-H5221) at a concentration of 1 μg/ml was immobilized on a CM5 chip (Cytiva) using an amine coupling kit (Cytiva) according to the manufacturer's instructions. […] After each experiment in each concentration cycle, the chip was regenerated with glycine at pH 1.5. At this time, the running buffer used was a pH 7.4 or pH 6.0 HBS-EP+ buffer (0.1 M HEPES, 1.5 M NaCl, 0.03 M EDTA and 0.5% v/v Surfactant P20), and the experimental proteins were diluted in the running buffer.
(§2) The analysis was performed using the 1:1 binding model in Biacore evaluation software version 3.0, and the results of the kinetic constants (ka and kd) and affinity (KD) values are shown in Table 3 below.

[3] = target: T2, IL-2Rβγ-His (Acrobiosystems) (UniProt P14784 27-239; P31785 23-262, limits assumed); test: ELISA on plate-coated IL-2Rβγ-His, OD450 against antibody concentration (M)
T2 construct: His-tagged; also called IL-2Rβγ protein
T2 sequence (looked up) 1: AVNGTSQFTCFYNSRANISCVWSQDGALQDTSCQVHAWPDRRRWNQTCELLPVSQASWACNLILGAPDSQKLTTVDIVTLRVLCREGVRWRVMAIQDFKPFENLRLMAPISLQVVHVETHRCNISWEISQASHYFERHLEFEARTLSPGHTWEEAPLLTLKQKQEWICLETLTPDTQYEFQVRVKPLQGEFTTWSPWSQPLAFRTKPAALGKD
T2 sequence (looked up) 2: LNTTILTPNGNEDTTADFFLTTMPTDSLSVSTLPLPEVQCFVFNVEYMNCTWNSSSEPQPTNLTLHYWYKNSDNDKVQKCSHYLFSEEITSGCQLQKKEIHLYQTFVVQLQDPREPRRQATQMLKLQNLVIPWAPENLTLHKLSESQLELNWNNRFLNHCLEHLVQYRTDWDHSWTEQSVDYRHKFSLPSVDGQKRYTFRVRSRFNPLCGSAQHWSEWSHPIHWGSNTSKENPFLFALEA

[4] = target: T1, Human PD-1 (Acrobiosystems, Cat …); test: SPR Biacore 8K, human PD-1 amine-coupled on CM5, 1:1 model, pH 7.4
Description: as §1, §2

[5] = target: T3, IL-2Rα-His (Acrobiosystems) (UniProt P01589 22-213); test: ELISA on plate-coated IL-2Rα-His, OD450 against antibody concentration (M)
T3 construct: also called IL-2Rα protein; not shown: His tag
T3 sequence (looked up): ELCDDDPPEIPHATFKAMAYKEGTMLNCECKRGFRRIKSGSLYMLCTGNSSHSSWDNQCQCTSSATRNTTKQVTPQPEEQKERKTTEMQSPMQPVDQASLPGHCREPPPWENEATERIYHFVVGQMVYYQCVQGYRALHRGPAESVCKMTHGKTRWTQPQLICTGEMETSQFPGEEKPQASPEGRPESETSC

[6] = target: T4, IL-2Rβγ on HEK-Blue CD122/CD132 cells (InvivoGen) (UniProt P14784 27-551; P31785 23-369, limits assumed); test: cell-based or functional assay
T4 sequence (looked up) 1: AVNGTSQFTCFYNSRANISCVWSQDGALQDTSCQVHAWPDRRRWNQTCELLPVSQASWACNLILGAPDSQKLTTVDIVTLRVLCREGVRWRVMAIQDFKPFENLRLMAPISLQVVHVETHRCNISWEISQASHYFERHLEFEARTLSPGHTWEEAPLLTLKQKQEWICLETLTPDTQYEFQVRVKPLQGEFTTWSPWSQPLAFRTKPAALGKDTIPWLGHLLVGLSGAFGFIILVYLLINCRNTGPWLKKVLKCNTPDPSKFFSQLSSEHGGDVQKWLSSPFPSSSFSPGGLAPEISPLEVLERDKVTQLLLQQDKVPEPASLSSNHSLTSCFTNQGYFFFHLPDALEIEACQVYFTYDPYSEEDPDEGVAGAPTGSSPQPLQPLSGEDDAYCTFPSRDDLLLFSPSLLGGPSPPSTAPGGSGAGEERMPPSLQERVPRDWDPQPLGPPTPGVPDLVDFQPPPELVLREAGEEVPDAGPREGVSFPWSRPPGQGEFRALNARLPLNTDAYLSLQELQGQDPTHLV
T4 sequence (looked up) 2: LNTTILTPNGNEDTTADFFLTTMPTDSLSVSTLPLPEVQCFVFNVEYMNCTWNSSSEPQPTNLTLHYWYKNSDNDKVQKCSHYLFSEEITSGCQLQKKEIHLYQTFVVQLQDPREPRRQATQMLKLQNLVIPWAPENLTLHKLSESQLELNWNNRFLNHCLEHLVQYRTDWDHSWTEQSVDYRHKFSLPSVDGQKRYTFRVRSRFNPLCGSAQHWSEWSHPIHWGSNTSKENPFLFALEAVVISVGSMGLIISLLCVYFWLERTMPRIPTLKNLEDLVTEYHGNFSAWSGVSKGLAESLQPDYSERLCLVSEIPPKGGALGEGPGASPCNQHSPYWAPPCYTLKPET

[7] = target: T5, IL-2Rαβγ on HEK-Blue IL-2 cells (InvivoGen) (UniProt P01589 22-272; P14784 27-551; P31785 23-369, limits assumed); test: cell-based or functional assay
T5 sequence (looked up) 1: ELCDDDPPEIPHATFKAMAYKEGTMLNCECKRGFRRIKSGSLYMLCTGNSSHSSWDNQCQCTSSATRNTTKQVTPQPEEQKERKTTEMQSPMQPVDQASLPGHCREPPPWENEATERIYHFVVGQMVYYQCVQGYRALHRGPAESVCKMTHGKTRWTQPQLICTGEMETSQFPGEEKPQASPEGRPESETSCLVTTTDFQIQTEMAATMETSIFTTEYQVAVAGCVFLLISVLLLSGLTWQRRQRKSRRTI
T5 sequence (looked up) 2: T4 sequence (looked up) 1
T5 sequence (looked up) 3: T4 sequence (looked up) 2

- fold difference of the IL-2 response in IL-2Rαβγ cells with against without PD-1 expression (HEK-Blue) [1]: 44 fold
- fold stronger IL-2 response in IL-2Rβγ cells expressing PD-1 than in cells without PD-1 expression (HEK-Blue) [1]: ~340 fold
- Kd [2]: 0.0476 nM
- koff [2]: 2.31e-05 s⁻¹
- kon [2]: 486000 M⁻¹ s⁻¹
- EC50 [3]: ~50 nM
- Kd [4]: 0.53 nM
- koff [4]: 7.27e-05 s⁻¹
- kon [4]: 137000 M⁻¹ s⁻¹
- binding result [5]: no binding
- EC50 (nM), HEK-Blue SEAP reporter, IL-2Rβγ cells, PD-1 (+), 2nd [6]: 0.0392 nM
- EC50 (nM), HEK-Blue SEAP reporter, IL-2Rβγ cells, PD-1 (-), 1st [6]: 7.27 nM
- EC50 (nM), HEK-Blue SEAP reporter, IL-2Rβγ cells, PD-1 (-), 2nd [6]: 12.2 nM
- EC50 (nM), HEK-Blue SEAP reporter, IL-2Rαβγ cells, PD-1 (+), 1st [7]: 0.0348 nM
- EC50 (nM), HEK-Blue SEAP reporter, IL-2Rαβγ cells, PD-1 (+), 2nd [7]: 0.0578 nM
- EC50 (nM), HEK-Blue SEAP reporter, IL-2Rαβγ cells, PD-1 (-), 1st [7]: 0.963 nM
- EC50 (nM), HEK-Blue SEAP reporter, IL-2Rαβγ cells, PD-1 (-), 2nd [7]: 3.08 nM
B1: Fusion Protein A (other)
light: DIVMTQTPLSLSVTPGQPASISCRSSQNIVHSQGDTYLEWYLQKPGQSPQLLIYKVSKRFSGVPDRFSGSGSGTDFTLKISRVEAEDVGVYYCFQGSHVPWTFGGGTKVEIKRTVAAPSVFIFPPSDEQLKSGTASVVCLLNNFYPREAKVQWKVDNALQSGNSQESVTEQDSKDSTYSLSSTLTLSKADYEKHKVYACEVTHQGLSSPVTKSFNRGEC
heavy 1: QVQLVQSGAEVKKPGASVKVSCKASGYTFTGYWMHWVRQAPGQGLEWIGMIHPNSDTTTYNEKFKNRVTMTRDTSISTAYMELSRLRSDDTAVYYCAGTDQAAWFAFWGQGTTVTVSSASTKGPSVFPLAPCSRSTSESTAALGCLVKDYFPEPVTVSWNSGALTSGVHTFPAVLQSSGLYSLSSVVTVPSSSLGTKTYTCNVDHKPSNTKVDKRVESKYGPPCPPCPAPEFLGGPSVFLFPPKPKDTLMISRTPEVTCVVVDVSQEDPEVQFNWYVDGVEVHNAKTKPREEQFNSTYRVVSVLTVLHQDWLNGKEYKCKVSNKGLPSSIEKTISKAKGQPREPRVYTLPPSQEEMTKNQVSLWCLVKGFYPSDIAVEWESNGQPENNYKTTPPVLDSDGSFFLYSRLTVDKSRWQEGNVFSCSVMHEALHNHYTQKSLSLSPGKSGGGSGGGSGGGSGG[letters of about 150 residues not shown]
heavy 2: QVQLVQSGAEVKKPGASVKVSCKASGYTFTGYWMHWVRQAPGQGLEWIGMIHPNSDTTTYNEKFKNRVTMTRDTSISTAYMELSRLRSDDTAVYYCAGTDQAAWFAFWGQGTTVTVSSASTKGPSVFPLAPCSRSTSESTAALGCLVKDYFPEPVTVSWNSGALTSGVHTFPAVLQSSGLYSLSSVVTVPSSSLGTKTYTCNVDHKPSNTKVDKRVESKYGPPCPPCPAPEFLGGPSVFLFPPKPKDTLMISRTPEVTCVVVDVSQEDPEVQFNWYVDGVEVHNAKTKPREEQFNSTYRVVSVLTVLHQDWLNGKEYKCKVSNKGLPSSIEKTISKAKGQPREPQVYTLPPSQEEMTENQVSLSCAVKGFYPSDIAVEWESNGQPENNYKTTPPVLDSDGSFFLVSRLTVDKSRWQEGNVFSCSVMHEALHNHYTQKSLSLSPGKGGGGSGGGGSGGGGSGGGGSELCDDDPPEIPHATFKAMAYKEGTMLNCECKRGFRRIKSGSIYMLCTGNSSHSSWDNQCQCTSSATRNTTKQVTPQPEEQKERKTTEMQSPMQPVDQASLPGHCREPPPWENEATERIYHFVVGQMVYYQCVQGYRALHRGPAESVCKMTHGKTRWTQPQLICTG
notes: Antibody-cytokine fusion with two anti-PD-1 Fab arms; also called fusion protein of the present invention; anti-PD-1 1G1-h70 IgG4 heterodimeric Fc with IL-2 C125S and CD25 L42I
